# Results: the supplement of paper PMC12632987
# The full ranking holds about 2,300 sequences; the median of “median log2 fold change of GCK-ALFA target abundance (FLAG IP / Myc IP barcode read proportion)” is about 0.095, and the lowest 2% start at about -0.47. This is one part of the list.
# B1: LC3A_147_472 (protein)
# chain: VKAVVDIDILTKDAEEEVKEKIKEIVEELKKKGYKVELEIETEKLPDGTTYIKVKITIEAETLEKAKEAANEVIDKLEEMEEELKDKILGSIISVDIEEE
# B2: LC3A_free_8_2483 (protein)
# chain: NSEKLAQEVVKLLSELEERLVALAREEGASRLDILELELLVGSTIAEVISLRDKSIEEIRKETEEGLKEIIAEAAKVGPKVAALAEEGAKEILETIDKAE
# B3: LC3A_3_1672 (protein)
# chain: MEEAIGRLLEAERARGASEEQLAELREALEELLKVSSEKVLERLVELLLEAEDVPVEQKIDAVRDIVYEIKKNNLSEEEQIELVESEVRAIRHGTEIEEL
# B4: LC3A_141_355 (protein)
# chain: KTLTLKYTIKAKTPEEAIKKLEEVKKEIKKKMEEEGFKSVDITATITTKNKKTGETTTETVKETVTKENIDLVFDSLIIEVASAALKGDVTVDITATLIE
# B5: LC3A_28_1123 (protein)
# chain: SARRAAWRAALAEAKALAAKGEDVVATFTATGDDTEEDVRYLVEVIREAAKYLAEKGQSSILLDIDGSLPEHLRNYLIDKADEIEKEYPSVNIVIALEED
# B6: LC3A_3_1521 (protein)
# chain: MEEKKEEIIELLREAGASEETIELAKKTLELLEKRGYEKAIETLLEELKKLKDLPVETIEDFVRDVLELVETKDLSEEELSEEIRRIARTAKNDAEIEEL
# B7: LC3A_102_141 (protein)
# chain: SVEELKEEVLERVRKRVTELVAADPSVTPEQAKEIVETALELLRARLENLISERQHGFTDIVAEDKAIEAEEELKKYGEELAKKVLEIVEEGLEEFEERL
# B8: LC3A_28_1292 (protein)
# chain: SAIEEELKRALEEAERARKEGKQQVITVRVPGNATQEEIKLVIEGLEKIAEVLKDVPNQTIVVDVDAGVPQEYIDLLADKAEEIEKKYPNVTVIIALDED
# Molecular target: MAP1LC3A, Q9H492
# Test: median log2 fold change of GCK-ALFA target abundance (FLAG IP / Myc IP barcode read proportion) (log2 ratio); each designed protein is fused to an ALFA-tag nanobody in HEK293 cells to bring the named protein to FLAG-tagged glucokinase (GCK); Myc marks an untargeted standard; higher = target protein stabilised (more abundant)
# Details: target protein: 3xFLAG-MCP-GCK-ALFA reporter; HEK293 landing pad (RPLP)
# Procedure, shortened: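 Binders fused to an ALFA nanobody were recombined as a library into HEK293 landing-pad cells, which were induced with 2 μg mL^−1 doxycycline and then transfected to express a FLAG-tagged target and a Myc-tagged standard. After 48 h, circular RNA barcodes recovered by anti-FLAG and anti-Myc immunoprecipitation of lysates were reverse transcribed, amplified and sequenced. Each binder's target abundance is the median log2 ratio of FLAG to Myc barcode read proportions, from barcodes present at ≥10^−7 in both replicates, binders carrying ≥3 barcodes per replicate, a 10^−6 pseudocount and pooled replicates.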
row,Binder,median log2 fold change
1,B1,-0.0163
2,B2,-0.0519
3,B3,0.274
4,B4,0.0846
5,B5,-0.325
6,B6,0.407
7,B7,0.0153
8,B8,0.141
